This passage reports viability, T/C and IC50 results from PubChem BioAssay AID2060912 (Molecular Pharmacology Branch, DTP, NCI, 2025).

For this experiment, the system named is HUVEC/MSC spheroids viability. Put plainly: Human HUVEC/MSC cell line growth inhibition [KRAS2].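 As to viability, T/C: percent of DMSO vehicle control luminescence so 100% = untreated viability.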 The following applies: for viability, T/C: stronger effect = lower value. The text has this:
Multicellular complex tumor spheroid response to RAS pathway inhibitors in combination with a targeted agents in patient-derived cell lines with oncogenic KRAS variants from multiple cancer types
A high-throughput screen of multi-cell type tumor spheroids was designed to identify active combinations of targeted small molecules and KRAS pathway inhibitors. Complex spheroids include a stromal component modeled by human endothelial cells (HUVEC) and fibroblasts modeled by human mesenchymal stem cells (MSCs). The concentration ranges selected for each drug and investigational agent were based upon clinically achievable concentrations if the clinical Cmax of the agent was known. * [This particular assayID is a followup dataset requested by reviewers of the manuscript. It is a test of the HUVEC and MSC without the tumor cells, and was conducted using different drug plates and a different plate layout.]
Compounds. The drugs and investigational agents: BI-3406 (NSC825286), BAY-293 (NSC824723), batoprotafib (TNO155; NSC825523), sotorasib (AMG 510; NSC818433), MRTX1257 (NSC819558), elimusertib (BAY 1895344; NSC800525), molibresib (GSK525762; NSC774829), temuterkib (LY3214996; NSC803410), venetoclax (NSC766270), alisertib (NSC759677), olaparib (NSC753686), talazoparib (NSC767125), erdafitinib (NSC781556), ipatasertib (NSC767898), cabozantinib (NSC761068), nintedanib (NSC756659), abemaciclib (NSC768073), docetaxel (NSC628503), trametinib (NSC758246), and sapanisertib (NSC764658) were obtained from the National Cancer Institute (NCI) Developmental Therapeutics Program Chemical Repository. The FDA-approved anticancer drug set is available from the Developmental Therapeutics Program. […] The stock solutions were prepared in dimethyl sulfoxide (DMSO, Sigma-Aldrich, St. Louis, MO, cat. D2650) at 800-fold the tested concentration and stored at -70 degrees C prior to their use. All drugs and investigational agents were tested over a range starting from a high concentration at or near the clinical Cmax and decreasing in half-log increments. If the clinical Cmax for an agent had not been determined, the highest concentration tested was 10 microM.
Cell Culture. All cells were maintained in an incubator at 37 degrees C and 5% CO2 with 95% humidity. The PDC lines were cultured according to standard operating procedures established by the NCI PDMR (https://pdmr.cancer.gov/sops/default.htm). Briefly, all PDCs were thawed and cultured in Matrigel-coated flasks prepared with a working solution of 1X Ham's F-12 nutrient mix, without supplementation (Invitrogen, Waltham, MA, cat. 11765054), 100 U/mL penicillin-streptomycin (Invitrogen, cat. 15140122), and 2.5% Matrigel (Corning Inc., Corning, NY, cat. 354248) for the first three passages. All PDCs were cultured in complete DMEM/F-12 media containing advanced DMEM/F-12 (Invitrogen, cat. 12634028), 4.9% defined fetal bovine serum, heat inactivated (HyClone Laboratories Inc., Logan, UT, cat. SH30070.03HI), 389 ng/mL hydrocortisone (Sigma-Aldrich, cat. H4001), 9.7 ng/mL human EGF recombinant protein (Invitrogen, cat. PHG0313), 23.4 microg/mL adenine (Sigma-Aldrich, cat. A2786), 97.3 U/mL penicillin-streptomycin (Invitrogen, cat. 15140122), 1.9 mM L-glutamine (Invitrogen, cat. 25030081), and 9.7 microM Y-27632 dihydrochloride (Tocris Bioscience, Bristol, United Kingdom, cat. 1254). The PDCs were cultured in complete DMEM/F12 media without 9.7 microM Y-27632 dihydrochloride for at least two passages prior to the screen. The established cell line HOP-62 was cultured in RPMI 1640 medium, HEPES (Invitrogen, cat. 22400105) with 10% defined fetal bovine serum (HyClone Laboratories Inc., cat. SH30070.03) and 2 mM L-glutamine (Invitrogen, cat. 25030081). The pooled donor HUVEC were cultured in endothelial cell growth medium 2 (PromoCell, Heidelberg, Germany, cat. C-22011) and the hMSC were cultured in mesenchymal stem cell growth medium 2 (PromoCell, cat. C-28009). […]

The IC50 is the concentration at which inhibition is half-maximal.

The structures appear in SMILES notation. The source holds more than one record for some entries. This list holds those alone. An entry can have further records. Results that share an entry repeat one measurement across runs, samples, wells, individuals or studies. Additions like (4×) give the number of equal values in this list.

As to `COc1cc2nc(C)nc(NC(C)c3cc(N)cc(C(F)(F)F)c3)c2cc1OC1CCOC1` (stereo not given), the viability, T/C (compound alone 0.1 µM) is listed as 83.3, 98.8, 92.6, 111, 95.3, 97, 95.8, 80.4%; the viability, T/C (compound alone 1 µM) is 84.1, 103, 99.9, 119, 84.8, 81.9, 76.1, 110, 72.8%; the viability, T/C (compound alone 3.16 µM) was 92.5, 78.3, 92.7, 102, 72.2, 72.8, 86.8, 95.2, 81.5%.

With `CC(=O)Nc1cccc(-n2c(=O)n(C3CC3)c(=O)c3c(Nc4ccc(I)cc4F)n(C)c(=O)c(C)c32)c1`, the viability, T/C is 111, 130 (2×), 124, 144% (compound alone 0.0003 µM) and 105, 125, 109 (2×), 89% (compound alone 0.003 µM).

For the compound `C=CC(=O)N1CCN(c2nc(=O)n(-c3c(C)ccnc3C(C)C)c3nc(-c4c(O)cccc4F)c(F)cc23)C(C)C1` (stereo not given), the viability, T/C runs as follows: (compound alone 0.1 µM) 91.5, 87.8, 105, 82, 113, 106, 97.3, 114, 107%; (compound alone 0.316 µM) 108, 96.6, 107, 106, 103, 117, 87.7, 113, 124%; (compound alone 1 µM) 110 (2×), 99.2, 125, 117, 106, 124, 127, 115%; (compound alone 3.16 µM) 121, 127, 143, 108, 94.1, 113, 110 (2×), 119%.

For `CC1OCC2(CCN(c3cnc(Sc4ccnc(N)c4Cl)c(N)n3)CC2)C1N` (stereo not given), the viability, T/C runs as follows: (compound alone 0.0316 µM) 91.5, 109, 99.1, 102, 95.3, 107, 92.4, 105, 91.2, 94.7, 115, 123, 92.1, 108%; (compound alone 0.1 µM) 100, 105, 108, 103, 90.4, 94.6, 97.9, 102, 83.9, 90.1, 101, 154, 119, 110%; (compound alone 0.316 µM) 89.5, 131, 117, 102, 104, 110, 112, 115, 99.1, 95.5, 84.7, 114, 107, 103%; (compound alone 1 µM) 83.6, 101, 89.4, 88.5, 103, 98.5, 98.2, 109, 84.9, 89.9, 114, 122, 81.5, 85.5%; (compound alone 3.16 µM) 84.6, 83.6, 89.2, 89.1, 86.2, 84.9, 91.5, 89.8, 87, 83.4, 97.4, 115, 65.4, 76.6%; (compound alone 10 µM) 67, 75.1 (2×), 72.5, 66.1, 78.8, 93.6, 82.2, 66.7, 58.9, 79.3, 122, 62.5, 64%.

`Cn1ncnc1[C@H]1c2n[nH]c(=O)c3cc(F)cc(c23)N[C@@H]1c1ccc(F)cc1`: the viability, T/C (compound alone 0.000316 µM) is on record as 96.5, 96.1, 92, 106, 76.8%.

For `COC(=O)c1ccc2c(C(=Nc3ccc(N(C)C(=O)CN4CCN(C)CC4)cc3)c3ccccc3)c(O)[nH]c2c1`, the viability, T/C is given as 76.7, 99.4, 67.1, 58.4, 90.1% (compound alone 0.0316 µM); 98.8, 94.8, 93.4, 73.4, 85.6% (compound alone 0.1 µM); 100, 93.2, 82.7, 73.8, 89.5% (compound alone 0.316 µM).

Regarding `C=CC(=O)N1CCN(c2nc(OCC3CCCN3C)nc3c2CCN(c2cccc4cccc(C)c24)C3)CC1CC#N` (stereo not given), the viability, T/C (compound alone 0.00949 µM) is 76.2, 86.3, 90, 82.5, 106, 99.9, 81.6, 110, 79.6%; the viability, T/C (compound alone 0.0949 µM) is listed as 80.3, 87.1, 95.8, 87.6, 109, 89.5, 93.2, 97.6, 88.5%; the viability, T/C (compound alone 0.3 µM) was 67.1, 84.5, 83.1, 94.8, 92.3, 81, 69.9, 88, 70.5%.

Regarding `COc1cc2nccc(Oc3ccc(NC(=O)C4(C(=O)Nc5ccc(F)cc5)CC4)cc3)c2cc1OC`, the viability, T/C (compound alone 3.16 µM) is given as 104, 101, 91.8, 84.5, 76.9%.

Take `CCN1CCN(Cc2ccc(Nc3ncc(F)c(-c4cc(F)c5nc(C)n(C(C)C)c5c4)n3)nc2)CC1`: the viability, T/C is 96.2, 103, 91.6, 76.4, 77.3% (compound alone 0.00316 µM) and 105, 151, 108, 117, 135% (compound alone 1 µM).

Turning to `Cn1nccc1Nc1nccc(-c2cc3c(s2)C(C)(C)N(CCN2CCOCC2)C3=O)n1`, where the note is “compound alone 0.316 µM”, the viability, T/C is 110, 104, 127, 132, 103%.

For the compound `CCNC(=O)CC1N=C(c2ccc(Cl)cc2)c2cc(OC)ccc2-n2c(C)nnc21` (stereo not given), the viability, T/C (compound alone 0.316 µM) is recorded as 121, 92.4, 80.9, 97.3, 81.8%; the viability, T/C (compound alone 1 µM) was 120, 112, 127, 94, 123%; the viability, T/C (compound alone 3.16 µM) is reported as 134, 94.9, 120, 121, 101%; the viability, T/C (compound alone 10 µM) was 115, 93.8, 130, 94.1, 105%.

As for `CNCc1ccccc1-c1csc(C(C)Nc2nc(C)nc3cc(OC)c(OC)cc23)c1` (stereo not given), the viability, T/C runs as follows: (compound alone 0.1 µM) 94.3 (2×), 78.3, 86.8, 76.9, 99.2, 102, 96.1, 91.7%; (compound alone 1 µM) 96, 76.2, 80.5, 68.4, 85.5, 81.3, 84.7, 69.6, 110%; (compound alone 3.16 µM) 97.7, 74.2, 91.6, 73.6, 97.6, 97.5, 89.2, 89.5, 108%.

Turning to `O=C(c1cc(Cc2n[nH]c(=O)c3ccccc23)ccc1F)N1CCN(C(=O)C2CC2)CC1`, the viability, T/C (compound alone 0.0316 µM) is on record as 86.9, 89.2, 95.3, 112, 100%; the viability, T/C (compound alone 0.1 µM) is recorded as 111, 87.1, 77.1, 99.3, 87.3%; the viability, T/C (compound alone 3.16 µM) is 102, 85.7, 86.8, 90.3, 76.8%.

`CC1COCCN1c1cc(-c2ccnn2C)c2ccnc(-c3ccn[nH]3)c2n1` (stereo not given): the viability, T/C (compound alone 0.00949 µM) was 85.6, 79.2, 89.1, 116, 94%.

`CC(C)n1nc(-c2ccc3oc(N)nc3c2)c2c(N)ncnc21`: the IC50 (compound alone) is 6.01, 2.47, 6.36, 2.1, 19.3 nM. For the same compound, the viability, T/C (compound alone 0.000316 µM) was 70.6, 84.8, 99.7, 89.9, 110%.

Take `CN(C)C/C=C/C(=O)Nc1cc2c(Nc3ccc(F)c(Cl)c3)ncnc2cc1O[C@H]1CCOC1`: the viability, T/C runs as follows: (compound alone 0.01 µM) 81.7, 106, 85.5, 91.7, 77.8%; (compound alone 0.1 µM) 87.9, 74.1, 83.6, 103, 97%.

With `COc1cc(Nc2ncc3c(n2)-c2ccc(Cl)cc2C(c2c(F)cccc2OC)=NC3)ccc1C(=O)O`, under “compound alone 0.0316 µM”, the viability, T/C is recorded as 94.9, 95, 75.3, 113, 89%.

As to `CC(C)NCC(C(=O)N1CCN(c2ncnc3c2C(C)CC3O)CC1)c1ccc(Cl)cc1` (stereo not given), the viability, T/C is, setting by setting: (compound alone 0.0316 µM) 85.5, 94.3, 82.6, 78.2, 105%; (compound alone 0.1 µM) 92.2, 102, 93.2, 70.5, 87.9%; (compound alone 3.16 µM) 66.6, 70.9, 68.7, 45.5, 51.2%.
